In the supplement of paper PMC3724861:
Some of the results follow.

Test system: T1, Caupolican (Caup) homeodomain DNA-binding domain
T1 sequence: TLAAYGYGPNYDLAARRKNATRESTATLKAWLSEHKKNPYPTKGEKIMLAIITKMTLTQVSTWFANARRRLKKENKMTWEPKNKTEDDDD
Test: PBM E-score (8-mer, recovered from the published 9-mer minima) (E-score (dimensionless, -0.5 to 0.5)); Drosophila protein; higher = stronger relative binding preference, active = 0.31 or more
Method in brief: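 An enrichment score, with higher meaning stronger, expresses relative binding preference for each short DNA word. The protein used was Caup's homeodomain DNA-binding domain (residues 214-303), produced by in vitro transcription and translation and tested at 100 nM on custom-designed protein binding microarrays. The 8-mer values were recovered from published 9-mer scores, each equal to the lower of its two constituent 8-mer scores.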

| Sequence | PBM E-score |
| --- | --- |
| AGATATTC | inactive: 0.0274 |
| ACATCTTG | inactive: 0.262 |
| CCCACCCC | inactive: -0.155 |
| AGCCTCTA | inactive: -0.143 |
| CAGAGTGC | inactive: -0.102 |
| AATGTAAG | inactive: 0.214 |
| ATACATAT | active: 0.344 |
| ACGCAGGA | ≥ -0.0018 |
| GATAATAC | inactive: 0.154 |
| GCTTTAAA | inactive: -0.0478 |
| CCGCGTCG | inactive: -0.0739 |
| AAGAGGGG | inactive: -0.187 |
| CCGACGCA | inactive: -0.128 |
| AACCGGAA | inactive: -0.0406 |
| TGGGGTAA | inactive: -0.0531 |
| AATGGGCT | inactive: -0.0639 |
| GCGCGGCC | inactive: -0.302 |
| CATGCGCA | inactive: 0.00662 |
| ACGCCCTG | inactive: -0.0756 |
| CAACACAA | inactive: 0.241 |
| ATAACATG | active: 0.424 |
| AGCGCTGC | inactive: -0.119 |
| ACCCAATA | inactive: 0.0314 |
| AGTCGAAC | inactive: 0.0823 |
| AGCGATCG | inactive: -0.00992 |

| Sequence | PBM E-score |
| --- | --- |
| CAATCGCC | inactive: -0.029 |
| AATTCAAT | inactive: 0.119 |
| ATCAGCAC | inactive: 0.0108 |
| GAACATGC | active: 0.354 |
| ACGAAATC | inactive: 0.067 |
| GATTTCAC | inactive: 0.101 |
| GCCGCCAA | inactive: -0.218 |
| GGGCGTCA | inactive: -0.174 |
| CCCTCACC | inactive: -0.153 |
| CGCAAATA | inactive: 0.0646 |
| CGGCATGC | inactive: -0.0407 |
| AGAATGCA | inactive: 0.05 |
| GCAGACAC | inactive: 0.033 |
| ATCAAATG | inactive: 0.0866 |
| CCGGAATA | inactive: -0.0473 |
| GTTAAGCA | inactive: 0.103 |
| GTTAGCTA | inactive: -0.0329 |
| AATGTAAA | active: 0.323 |
| GCGGGGAC | inactive: -0.138 |
| GTGGTTAA | inactive: 0.0838 |
| AGGTATAA | inactive: 0.0486 |
| CGTCGTGC | inactive: 0.0266 |
| TGCCTACA | inactive: 0.104 |
| ACTAGGGG | inactive: -0.223 |
| GCCATACA | inactive: 0.119 |

| Sequence | PBM E-score |
| --- | --- |
| GATGATCA | inactive: 0.0545 |
| ACTAATCG | inactive: 0.0239 |
| CGCGCTAG | inactive: -0.142 |
| GAGCACGA | inactive: 0.0517 |
| TACTTCCA | inactive: 0.0598 |
| ATCCACAC | inactive: -0.0296 |
| CGTCGGTC | inactive: -0.111 |
| AAGTGTCG | inactive: 0.116 |
| TAGGTTCA | inactive: -0.0122 |
| CCCCTTGA | inactive: -0.156 |
| ATAGGAGA | inactive: 0.0365 |
| GGCCGTAA | inactive: -0.148 |
| AGCTAGAT | ≥ 0.0524 |
| ATGTGACC | inactive: 0.0381 |
| ATGAGAGA | inactive: -0.0278 |
| AACCAAGT | inactive: 0.0437 |
| CTGAGTCA | inactive: -0.0457 |
| AGACGATA | inactive: 0.0762 |
| AATGCGGA | inactive: -0.0519 |
| TACCGGTA | ≥ 0.0291 |
| GGGCTGTA | inactive: -0.0303 |
| TCTGCCAA | inactive: -0.0468 |
| GGCCTTAA | inactive: -0.0972 |
| AAGCAGGA | inactive: 0.00695 |
| CCATATGG | inactive: -0.073 |

| Sequence | PBM E-score |
| --- | --- |
| CGACTGGA | inactive: -0.158 |
| GGTCCCAA | inactive: -0.114 |
| AAGACTTA | inactive: 0.0824 |
| AACCGAAA | inactive: 0.0343 |
| AGTCTGCC | inactive: -0.152 |
| AGACCTGC | inactive: -0.07 |
| CATACCGA | inactive: 0.0416 |
| CCCCCAGC | inactive: -0.44 |
| AATCATCT | inactive: 0.101 |
| AAGGCCCA | inactive: -0.231 |
| AGATCGTG | inactive: 0.0439 |
| CACGCATG | inactive: 0.0739 |
| CCTGGTCA | inactive: -0.0753 |
| ATATGCTC | inactive: 0.116 |
| ATACGCAT | inactive: 0.11 |
| TTCTGCAA | inactive: 0.0212 |
| AAGATAAG | inactive: 0.142 |
| ACCTAGTA | inactive: 0.145 |
| ACCTATCA | inactive: 0.0881 |
| CTATACGA | inactive: 0.0334 |
| CACGGCGG | inactive: -0.173 |
| GTCTGTAA | inactive: 0.1 |
| TCACTGGA | inactive: -0.047 |
| GAACGATC | inactive: -0.00792 |
| CTACCCGC | inactive: -0.151 |

| Sequence | PBM E-score |
| --- | --- |
| CCTCCCGA | inactive: -0.263 |
| CGCCTCCA | inactive: -0.165 |
| ATCACTGC | inactive: -0.0201 |
| ACAGTTCA | inactive: 0.0978 |
| CATTCTGA | inactive: -0.0227 |
| GGATGGAC | inactive: -0.0198 |
| GCGCTCAA | inactive: -0.132 |
| CACCCTAA | inactive: -0.0584 |
| ACCTACAA | inactive: 0.171 |
| GAAATTCC | inactive: -0.0846 |
| ATGGTAAG | inactive: -0.0526 |
| CTCGACTC | inactive: -0.0783 |
| CCCATTGC | inactive: -0.105 |
| GCGGACGC | inactive: -0.263 |
| CAAACATC | inactive: 0.23 |
| AAATAGTT | inactive: 0.136 |
| AACGCGCC | inactive: -0.214 |
| TATCAGGA | inactive: 0.0345 |
| ACAGGTAC | inactive: 0.161 |
| CGATGCAC | inactive: -0.015 |
| CAACCGCG | inactive: -0.0698 |
| AACAAGAT | active: 0.334 |
| AGTCCAGG | inactive: -0.0987 |
| GCAGGCAA | inactive: -0.0468 |
| CTATCTAA | inactive: 0.0584 |

| Sequence | PBM E-score |
| --- | --- |
| AGGGTTAC | inactive: -0.0616 |
| CGGCCCCG | inactive: -0.323 |
| AAATCAAT | inactive: 0.171 |
| CCTTATTC | inactive: -0.0214 |
| ACACCGCC | inactive: 0.0415 |
| ACAACGTA | inactive: 0.255 |
| AGAACGGG | inactive: -0.126 |
| CTGAAAAA | inactive: -0.0197 |
| CCCGGAGG | inactive: -0.327 |
| CACTCTAG | inactive: -0.093 |
| GATCACAC | inactive: 0.145 |
| AGGGTTTC | inactive: -0.0131 |
| GCTGTCAC | inactive: 0.112 |
| CGGTTCCA | inactive: -0.127 |
| CTGCCAAC | inactive: -0.0934 |
| ACTTAGGC | inactive: -0.134 |
| ACCCCGTC | inactive: -0.239 |
| TAAATGAA | inactive: 0.139 |
| GCTCTGAC | inactive: -0.121 |
| CCGGAACA | inactive: 0.137 |
| ACCACATG | inactive: 0.212 |
| GGCCCAAC | inactive: -0.161 |
| AAAGTCAA | inactive: 0.0526 |
| ACGGCCAG | inactive: -0.163 |
| AACCATGC | inactive: 0.0352 |

| Sequence | PBM E-score |
| --- | --- |
| AGTTAAAC | inactive: 0.122 |
| GTATGGGA | inactive: -0.0439 |
| AATGCGGC | inactive: -0.0861 |
| CGTGATAC | inactive: 0.113 |
| GGATCTCA | inactive: -0.137 |
| GAACCCAA | inactive: -0.0323 |
| ATCAGATG | inactive: 0.131 |
| GCAACTCC | inactive: -0.14 |
| CCTCCCTC | inactive: -0.156 |
| ATTTGACG | inactive: 0.0903 |
| AAACCACG | inactive: -0.0278 |
| CCCGAGAC | inactive: -0.0815 |
| GAAATTGC | inactive: 0.0246 |
| GGTTACAC | inactive: 0.181 |
| CATATCGC | inactive: 0.0493 |
| GGGGGAAC | inactive: -0.21 |
| ACCTGCAC | inactive: -0.0605 |
| GCCAATCA | inactive: -0.0321 |
| GAGGCAGC | inactive: -0.186 |
| GAGTTGGA | inactive: -0.0666 |
| GACATCCA | inactive: 0.159 |
| GTAGGTCA | inactive: -0.00049 |
| CGGTGGTA | inactive: 0.00903 |
| ACACTCGC | inactive: -0.0592 |
| ACAGAGAC | inactive: 0.096 |

| Sequence | PBM E-score |
| --- | --- |
| CGCTAAGC | inactive: -0.0779 |
| AGTCATTA | inactive: 0.0618 |
| AGGACTGA | inactive: 0.0183 |
| CGATAAAG | inactive: 0.00965 |
| CTCCGTAC | inactive: -0.0596 |
| AGTCATGA | inactive: 0.127 |
| GCGACTTA | inactive: -0.0816 |
| ACACGCTA | inactive: 0.282 |
| AATAATAC | inactive: 0.267 |
| CCTGTCTC | inactive: -0.00577 |
| AAGTGCAC | inactive: 0.0771 |
| ACGCCGGG | inactive: -0.228 |
| AGATCATG | inactive: 0.0783 |
| ACCCAGCT | ≥ -0.0926 |
| AGGTCACC | inactive: -0.159 |
| GACGTAGA | inactive: -0.0704 |
| CAATGTAG | inactive: 0.182 |
| AGCCAGAG | inactive: -0.124 |
| AGGGCATA | inactive: -0.0425 |
| CGTGTTAC | inactive: 0.282 |
| GTGTACAC | active: 0.389 |
| TACAGGCA | inactive: 0.161 |
| ACCGGGGG | inactive: -0.303 |
| GTCCTAAA | inactive: 0.0383 |
| ACGTCGCC | inactive: -0.156 |

| Sequence | PBM E-score |
| --- | --- |
| ATTAAATC | inactive: 0.091 |
| ATTGATTA | ≥ 0.2 |
| GTATAATA | inactive: 0.175 |
| GTGAGTAA | inactive: 0.0432 |
| CGTTTTAC | inactive: 0.0444 |
| AGTAGGGC | inactive: -0.0887 |
| CCACCAGG | inactive: -0.225 |
| ACCCTTTG | inactive: -0.118 |
| TAGTTCGA | inactive: 0.0752 |
| CTATAAAC | inactive: 0.158 |
| CTACGCCC | inactive: -0.212 |
| AACGGGAT | inactive: -0.0592 |
| CTTAGGGC | inactive: -0.143 |
| TCCAACGA | ≥ 0.0483 |
| ACCGAAAC | inactive: -0.0317 |
| CTAGATTA | inactive: 0.145 |
| CAGTACGA | inactive: 0.101 |
| ATGGTAGG | inactive: -0.0515 |
| GCGCGAAC | inactive: -0.0671 |
| AGTGGTAG | inactive: 0.0358 |
| CAAAGTCG | inactive: -0.0445 |
| ATTGTGCC | inactive: -0.0794 |
| ATGAGTTA | inactive: 0.04 |
